Measurements taken from the supplement of paper PMC11417369.
± gives the standard deviation of the averaged measurements. Some of the results follow.

Tested on: PfAP2-I AP2 domain 3 (GST-tagged)
Test: gcPBM binding intensity (ln(normalized median fluorescence intensity)); higher = stronger DNA binding
In short: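 An Agilent 4 × 180k array carrying primer-extended double-stranded 36-bp intergenic genomic probes and negative controls received GST-tagged P. falciparum DNA-binding domains expressed in E. coli, about 25 μg on average, for 1 h. The binding buffer contained 1× PBS, 1% milk, 0.2 mg/ml BSA, 0.5% salmon testes DNA and 0.03% Triton X-100. Binding intensity is the top Masliner-normalised natural-log median intensity across replicate spots of either probe orientation, read after Alexa488 anti-GST antibody staining and a 488 nm scan.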

Sequence | gcPBM binding intensity (ln)
TTATATAGATGGAATAGTACAGTATATATATATATA [XGTACX_site8755] | 9.2 ± 0.69
ATTTCTCAATCGTAATGTACAAAAAAAAGGAAAAAA [XGTACX_site1193] | 7.78 ± 0.49
GGTATAAAGAAATTTTGTACATATTTCTCCCTTTAA [XGTACX_site1874] | 7.77 ± 0.62
AAAAAAAAAAAACACACACACACACTAATATATAAA [CACACA_site8302] | 7.89 ± 0.28
TAATATATAAGAAACAAAAAAAAATAAAAATATATA [TGCATGCA_negctrl_site153] | 7.48 ± 0.58
TAAAATAATTCGTAACGTACATATGTAATATAATAT [XGTACX_site6126] | 7.96 ± 0.4
CGCATACACGGACACACACACACATATATATATATA [CACACA_site4520] | 9.37 ± 0.23
GTGCTACATCATATGTGTACATATACCAAACTGTAT [XGTACX_site8233] | 8.775 ± 0.064
ATATGTATTGGAGTGTGTACATATATATATATTTAT [XGTACX_site5633] | 7.92 ± 0.43
TTAATAATGTTTTATTGTACTTTTTTGTGGGTTTAT [XGTACX_site5670] | 8.145 ± 0.064
ATATACATTCAAGGCTGTACACTATATTTTTTTTTT [XGTACX_site6514] | 8 ± 0.71
TTTGTGTAAAGAATCAGTACATATAATATATATATA [XGTACX_site1972] | 8.74 ± 0.028
TAAAAATGGGAGGGGTGTACTACACAATAAAATTAT [XGTACX_site5641] | 9.21 ± 0.12
TGTATTTTTAACATATGTACGAATAGCACGTGTTAT [XGTACX_site3640] | 8.61 ± 0.5
TATTTTATATGATAGGTGCATTTTTTTTTTTTTTTT [GTGCAC_site9757] | 10.5 ± 0.3
CTTGACCCCCTTTGTTGTACTGACATTTGTGAGCTT [XGTACX_site591] | 8.37 ± 0.21
ATTTTTTCAAAATGGAAAACTTATCAGTGAAAAAAA [CACACA_negctrl_site1087] | 8.02 ± 0.57
TAAGTGTATGTATATAAACACACATACATATATATA [CACACA_site8397] | 8 ± 0.71
TAATTTAAAAATTCCTGTACTCAGTTTTTTCTATTT [XGTACX_site4961] | 7.67 ± 0.53

Sequence | gcPBM binding intensity (ln)
TATAAAATTATTAAACAAGAAAATTTTAGGTAATAC [TGCATGCA_negctrl_site568] | 7.9 ± 0.51
TTGATAAAACGTTATGCACACGTACGTGGGTATTTA [CACACA_site8445] | 9.68 ± 0.22
TATAATATATTTTGATGTACAAATATATTATATATA [XGTACX_site8633] | 7.54 ± 0.15
ATAATATATTTTTGAACACACAATATATATATATAT [CACACA_site4124] | 9.23 ± 0.17
ATATAAATATGACACACACACAAAAAAAATAAAGAC [CACACA_site6208] | 8.4 ± 0.61
AGTATACACGAACACACACACACATATATAAATATA [CACACA_site6913] | 7.82 ± 0.39
TAAAGTATTACAACCACACACACACCCATATATTAT [CACACA_site4159] | 8.05 ± 0.23
ATGTGATAGAAGTACACACACATATGTATTTATAAT [CACACA_site5075] | 7.84 ± 0.59
TGTTTTATTTTTTTTGTGCACATACCTTTAGCATCA [GTGCAC_site9812] | 10.64 ± 0.064
TAATTATAATAAATATTCATATGTTCAAATATATAT [CACACA_negctrl_site151] | 7.68 ± 0.51
TAGAAGTACATATATGCATGTTAATTTTAAAGGAGG [TGCATGCA_site538] | 7.91 ± 0.54
ATTAAAAATATTAGTTGTACTTTATATTTTCATATA [XGTACX_site3614] | 7.7 ± 0.12
ATATATATATAGTGTTGTACATTTAAAAATAATATA [XGTACX_site2627] | 9.28 ± 0.32
AATCAAAATAATTTAACACACAATTTTAATACTGTT [CACACA_site2375] | 7.55 ± 0.57
TTTAAGAATTAACGGGGTACAATTCTTAAATATATA [XGTACX_site669] | 8.195 ± 0.078
AAATTCCATGAAAAAAGTACTAATTAATACAATATA [XGTACX_site2877] | 7.75 ± 0.4
TCTTTTATGCACATTGAGTAAACAACATATTTTTAA [TGCATGCA_negctrl_site561] | 10.2 ± 0.76
TTTAAAAAAATTCATGCACACGAAATAAAAAGCACC [CACACA_site8214] | 10.3 ± 0.22
TTTTTTATTAAAAGTAGTACACATGAAAAAAAAAAA [XGTACX_site5524] | 8.31 ± 0.4

Sequence | gcPBM binding intensity (ln)
ATTTTTATAGAAATATGTACACAATATGTATATATT [XGTACX_site7993] | 7.7 ± 0.47
TTAATATAGATATAACCACACACATACATCTAATTC [CACACA_site8519] | 7.8 ± 0.46
TTTGTTGACAGACACACACACATACATATATATATA [CACACA_site2288] | 9.2 ± 0.18
TATAATAATATAATGGTGCATGTATATAACCATATA | 9.21 ± 0.14
GCTCTTTTGTTATGGTGTACCCTCCATGTAACATAA [XGTACX_site91] | 8.27 ± 0.47
TTAATAATTCTTAAAAGTACATAACTTTTTTTTTTT [XGTACX_site751] | 7.51 ± 0.3
TCTTACGGATTCATTGTGCACATATATATATATATA [GTGCAC_site9896] | 10.6 ± 0.11
AAATAAATATAAATAAATAAATAAATAAATATATAT [CACACA_negctrl_site827] | 7.69 ± 0.55
TATATATAATTCATACATTTTAAATATATTTATTTA [CACACA_negctrl_site840] | 7.6 ± 0.33
TTTTAAAAACGGCATGCATGTAATACATGGAAGGAA [TGCATGCA_site480] | 8.38 ± 0.81
TTTATAATTTTAAAATGTACAAGGAGGAAAAATTCT [XGTACX_site422] | 8.16 ± 0.61
TATATAAATATTCGTAGTACAATACAATTATAAGTA [XGTACX_site3068] | 7.72 ± 0.42
TTATATTTTATATTTACACACATTTATATTTATAAA [CACACA_site203] | 7.72 ± 0.45
ATTTAATAAAAAAAAAAAATATTGTAGAATATGATG [GTGCAC_negctrl_site195] | 7.45 ± 0.67
AATTTGTAAAATAAGGTGCGTATAAAAAATTATATT [GTGCAC_site9676] | 9.71 ± 0.2
ATAAACATCGGTAGTACACACATTCATGTACTTGAT [CACACA_site3037] | 8.05 ± 0.42
ATATACATATTCTTGTGTACATAAAAATTTATATAT [XGTACX_site8726] | 8.06 ± 0.49
CAAATGGTAAATGAAAGTACAAATTGTTTTGATTAA [XGTACX_site1536] | 7.51 ± 0.91
